Experimental data reported in the supplement of paper PMC4166925.
± gives the standard deviation of the averaged measurements. The full ranking holds about 33,000 sequences; the median of “E-score (dimensionless, -0.5 to 0.5)” is about -0.049, and the highest 2% start at about 0.37. The list shows a part of the results.

Each sequence was assayed on T1, PmTbr T-box DNA-binding domain (GST fusion) (assay: PBM E-score of 8-mer (E-score (dimensionless, -0.5 to 0.5)); Tbr is Tbrain of the sea star Patiria miniata (Pm) or the sea urchin Strongylocentrotus purpuratus (Sp); higher = stronger binding preference; most listed sequences are background and not binding sites). Settings: the construct has about 5 more residues each side.
T1 sequence: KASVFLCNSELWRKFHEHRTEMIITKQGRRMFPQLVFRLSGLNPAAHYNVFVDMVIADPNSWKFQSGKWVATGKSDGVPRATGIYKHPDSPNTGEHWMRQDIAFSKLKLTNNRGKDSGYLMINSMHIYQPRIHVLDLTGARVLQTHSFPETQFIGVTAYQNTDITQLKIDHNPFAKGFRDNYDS
Method in brief: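 Universal Agilent oligonucleotide arrays, made double-stranded by primer extension, were incubated with 200 nM GST-fused Tbr T-box DNA-binding domain in PBS (pH 7.5). The protein was expressed in BL21 E. coli at 20 °C and purified by glutathione affinity chromatography. After scanning and quantification, the Universal PBM Analysis Suite assigned an enrichment E-score to each ungapped 8-mer, averaged over duplicate arrays.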

| Sequence | PBM E-score of 8-mer |
| --- | --- |
| ATTCAATG | -0.333 ± 0.03 |
| ATCGTCTC | -0.0822 ± 0.054 |
| ACTACTAC | -0.105 ± 0.064 |
| TGCATGCA | -0.442 ± 0.0075 |
| AGCTCGTA | -0.0963 ± 0.06 |
| CCAGCCAA | 0.0372 ± 0.039 |
| AGCTCACT | -0.0593 ± 0.0093 |
| CGTTGCTA | 0.0731 ± 0.047 |
| AGTTCGTG | 0.0689 ± 0.063 |
| AGCTATCG | 0.125 ± 0.0093 |
| CTTAACGA | 0.0542 ± 0.021 |
| CGTGTTGA | 0.295 ± 0.028 |
| CGCGGCAA | 0.1835 ± 0.0003 |
| CCTCGTAG | -0.00827 ± 0.04 |
| GTACTTGA | -0.0223 ± 0.03 |
| ATTTCATA | -0.124 ± 0.14 |
| ACTACATG | -0.0372 ± 0.047 |
| GTCAGGCA | -0.0706 ± 0.019 |
| ATCTACGG | -0.272 ± 0.019 |
| CGGATACG | -0.138 ± 0.046 |
| ACAAAGAG | 0.0508 ± 0.043 |
| CAGTCGGC | -0.0348 ± 0.016 |
| CAGTGATG | -0.0435 ± 0.14 |
| AAAAAATC | 0.106 ± 0.12 |
| ACTTGGAC | -0.0396 ± 0.025 |

| Sequence | PBM E-score of 8-mer |
| --- | --- |
| GGGGGGAC | -0.339 ± 0.0087 |
| CCGCTGAG | -0.05 ± 0.068 |
| ACCTGCCG | 0.229 ± 0.033 |
| ACCTTCTC | 0.0744 ± 0.018 |
| AGCGGCTA | 0.0512 ± 0.065 |
| ATTGCGCC | 0.0332 ± 0.0025 |
| AGACATAG | -0.0931 ± 0.0015 |
| TCAATGAA | -0.145 ± 0.076 |
| AGAACACA | 0.154 ± 0.0065 |
| AGGTTAGC | 0.0849 ± 0.028 |
| CTATGTGA | 0.209 ± 0.023 |
| CGAACATA | -0.068 ± 0.025 |
| GGATCCCA | -0.0577 ± 0.036 |
| GCACCTAC | 0.382 ± 0.0042 |
| TAGACCAA | -0.0333 ± 0.022 |
| CAGTCAAG | -0.0211 ± 0.039 |
| AGGAGTAC | -0.05 ± 0.089 |
| AATTTTAT | -0.0919 ± 0.057 |
| CACCATTC | 0.312 ± 0.025 |
| ACCAATGA | -0.0935 ± 0.0071 |
| AGTCCGAA | -0.0518 ± 0.044 |
| ATAGTTGG | -0.0556 ± 0.062 |
| AATAAGAG | -0.0489 ± 0.003 |
| CCCAAGGG | -0.052 ± 0.028 |
| ACCGGGAC | -0.196 ± 0.094 |

| Sequence | PBM E-score of 8-mer |
| --- | --- |
| GTGACGAA | 0.371 ± 0.014 |
| TGCGTAAA | 0.0147 ± 0.024 |
| TATGCTCA | -0.0546 ± 0.004 |
| ATGTCCAA | -0.265 ± 0.0044 |
| GCTGTGAA | 0.3817 ± 0.0019 |
| CCTTGCAA | 0.0478 ± 0.095 |
| ACAGGTTA | 0.252 ± 0.022 |
| CCCAACCA | -0.23 ± 0.0029 |
| ATTCAAAC | -0.113 ± 0.054 |
| ACGGGAGA | -0.194 ± 0.0057 |
| AGTAGTCG | -0.0926 ± 0.09 |
| GTTCACCA | -0.0249 ± 0.026 |
| AATTCATC | -0.0277 ± 0.0079 |
| AGCCCCAG | -0.138 ± 0.057 |
| AATGAGCA | -0.11 ± 0.0056 |
| GAAAACCC | -0.0472 ± 0.071 |
| GCGAAGAC | 0.214 ± 0.063 |
| CGTTCTTC | -0.0942 ± 0.024 |
| GATAATAA | 0.182 ± 0.022 |
| CGGAAGTA | -0.162 ± 0.0057 |
| CGGGCATC | -0.288 ± 0.031 |
| GATATTGC | 0.0859 ± 0.048 |
| CCCCACCG | -0.0249 ± 0.11 |
| GCCGAAGC | -0.122 ± 0.056 |
| AGGTGCCG | 0.439 ± 0.0092 |

| Sequence | PBM E-score of 8-mer |
| --- | --- |
| CGCTAAAC | 0.278 ± 0.0067 |
| CAGTAAGC | -0.0795 ± 0.03 |
| ATGCCCAG | -0.0727 ± 0.0088 |
| CCGTAGAG | -0.112 ± 0.11 |
| CCTTATTA | -0.0364 ± 0.039 |
| AAGGCATT | -0.0696 ± 0.038 |
| CCCCAGAG | -0.096 ± 0.018 |
| ACCCACTC | -0.0406 ± 0.049 |
| AATTGACT | -0.061 ± 0.02 |
| AAAGGTGT | 0.478 ± 0.0057 |
| CAGGACTC | -0.282 ± 0.029 |
| CACGTACC | 0.152 ± 0.081 |
| ATCGGCCA | -0.138 ± 0.015 |
| ACCAGCCA | -0.0411 ± 0.071 |
| GACGACGC | 0.0696 ± 0.0067 |
| CGTGTCAC | 0.3865 ± 0.0037 |
| ATACGTCA | -0.103 ± 0.071 |
| AGCGGTCG | -0.0595 ± 0.095 |
| ACCTCCCA | 0.206 ± 0.053 |
| AAACTTGC | 0.122 ± 0.029 |
| ATGTTCTA | -0.121 ± 0.063 |
| GACTGACC | -0.232 ± 0.052 |
| ACCCACAA | -0.026 ± 0.12 |
| AGAGCAGC | -0.151 ± 0.09 |
| CAACTCGG | -0.003 ± 0.026 |

| Sequence | PBM E-score of 8-mer |
| --- | --- |
| TCCATTCA | -0.122 ± 0.007 |
| GGCTGCTA | 0.0299 ± 0.01 |
| GACCAATA | -0.175 ± 0.013 |
| AGTGCCAT | 0.211 ± 0.035 |
| GCACTAGC | 0.0942 ± 0.018 |
| CCGCCCTC | -0.058 ± 0.046 |
| CCGTCGGA | -0.209 ± 0.013 |
| CAAGTTTC | -0.00235 ± 0.0011 |
| ACCATGCT | -0.00328 ± 0.0055 |
| CTAGCTGC | 0.0678 ± 0.053 |
| CGGTTTAC | -0.132 ± 0.011 |
| TTTAGAAA | -0.102 ± 0.013 |
| CGATCTCC | -0.0913 ± 0.068 |
| AGTCCTGA | -0.212 ± 0.0058 |
| GCTCTATA | -0.25 ± 0.048 |
| AATGGACT | -0.16 ± 0.0072 |
| CTGACTGA | -0.168 ± 0.029 |
| AAAGTGGG | 0.089 ± 0.01 |
| AATTATAT | -0.201 ± 0.082 |
| CGCGCGAG | 0.27 ± 0.023 |
| AGAACAAA | -0.153 ± 0.13 |
| CAGCTAGC | 0.149 ± 0.028 |
| CACGAGAG | -0.0591 ± 0.03 |
| AATGGGAT | -0.184 ± 0.0093 |
| CTAATCTC | 0.00403 ± 0.021 |

| Sequence | PBM E-score of 8-mer |
| --- | --- |
| TCAGCTAA | 0.0376 ± 0.042 |
| GACCTGAA | 0.0244 ± 0.077 |
| CGCATGTC | 0.0309 ± 0.08 |
| GATACATA | -0.123 ± 0.052 |
| CGGAACCG | -0.17 ± 0.037 |
| CGTAACCA | -0.155 ± 0.007 |
| CCTTCCCC | -0.103 ± 0.15 |
| ACACCAGA | 0.316 ± 0.017 |
| AAACGTTA | -0.111 ± 0.044 |
| CCAAGGGC | -0.00209 ± 0.0086 |
| AAAATCCG | 0.047 ± 0.0082 |
| ATACTATA | 0.0121 ± 0.026 |
| AAAATCGA | 0.0546 ± 0.01 |
| GCGTCTGA | 0.00628 ± 0.061 |
| CTGAGGCA | -0.0583 ± 0.05 |
| CGTAAAAG | -0.0534 ± 0.03 |
| CGATGCGC | 0.0129 ± 0.01 |
| AACGATAT | -0.0689 ± 0.052 |
| CAACTCAA | -0.019 ± 0.02 |
| TAGTCAAA | -0.2 ± 0.035 |
| CATTGAGC | -0.111 ± 0.022 |
| CGATCTTA | -0.0203 ± 0.061 |
| CGAAGAGC | -0.116 ± 0.044 |
| ACGGTCCT | -0.1466 ± 0.00044 |
| TTACGGAA | -0.157 ± 0.052 |

| Sequence | PBM E-score of 8-mer |
| --- | --- |
| CCGCGTAA | -0.124 ± 0.016 |
| ATGCGCTA | 0.0835 ± 0.063 |
| CTTAAGAC | -0.218 ± 0.055 |
| AGTGCCGG | 0.189 ± 0.029 |
| AACCGTGT | 0.207 ± 0.014 |
| ACGAGACG | -0.0653 ± 0.0085 |
| GTTTGCCA | 0.0628 ± 0.025 |
| AAACCCAT | -0.0287 ± 0.018 |
| ATGATGGG | -0.0981 ± 0.046 |
| GCGTCAAC | 0.318 ± 0.012 |
| CACTAAGC | 0.144 ± 0.036 |
| AGCTTGAT | -0.0282 ± 0.019 |
| ATAGCAAG | 0.0935 ± 0.033 |
| CACGCAAG | 0.192 ± 0.032 |
| ACTGCACC | -0.0766 ± 0.0028 |
| GTTAGTCA | 0.143 ± 0.043 |
| CGGGGACA | -0.0573 ± 0.041 |
| CGAGGAGA | -0.139 ± 0.016 |
| ACAGCGCG | 0.258 ± 0.0087 |
| ATCTGTGC | -0.142 ± 0.022 |
| AGGAAGTC | -0.0733 ± 0.043 |
| AAGGCAAG | 0.0215 ± 0.051 |
